The values that follow come from the antibiotic and cytotoxicity screens of Wong et al. (2023).

The list shows a part of the results.

One experiment relates to HSkMC (human skeletal muscle cells). Kind of experiment: cytotoxicity call (relative viability < 0.9). The settings on record: 10 µM.
For the compound `Cc1noc(C)c1NC(=O)Nc1ccc2c(c1)C(=O)N([C@H](C)CO)C[C@@H](C)[C@H](CN(C)Cc1ccncc1)OCCCC[C@@H](C)O2`, the cytotoxicity call was “inactive”.
On to `C[C@@H]1CN([C@@H](C)CO)C(=O)c2cc(NS(C)(=O)=O)ccc2O[C@H]1CN(C)S(=O)(=O)c1cccs1`, for which the cytotoxicity call is “inactive”.
The same measure, in the same setting: to `C[C@@H]1CN([C@@H](C)CO)C(=O)c2cccc(NC(=O)c3cnccn3)c2O[C@H]1CN(C)S(=O)(=O)c1ccc(F)cc1` belongs “inactive”; to `CO[C@H]1CN(C)C(=O)c2cc(NC(=O)Nc3cccc(Cl)c3)ccc2OC[C@H](C)N(C(=O)Nc2c(C)noc2C)C[C@H]1C`, “inactive”.
With `C[C@H]1CN([C@@H](C)CO)C(=O)c2cc(NC(=O)C3CCCCC3)ccc2O[C@@H]1CN(C)C(=O)Nc1ccc(C(F)(F)F)cc1`, the cytotoxicity call is “inactive”.
For `C[C@@H]1CN([C@@H](C)CO)C(=O)Cc2cc(NC(=O)Nc3ccc4c(c3)OCO4)ccc2O[C@@H]1CN(C)C(=O)Nc1ccc(C(F)(F)F)cc1`, the cytotoxicity call was “inactive”.
`C[C@H](CO)N1C[C@H](C)[C@@H](CN(C)C(=O)NC2CCCCC2)Oc2ccc(NC(=O)Nc3ccc(C(F)(F)F)cc3)cc2C1=O`: the cytotoxicity call is “inactive”.
With `C[C@H]1CN([C@@H](C)CO)S(=O)(=O)c2ccc(C#CC(C)(C)O)cc2O[C@@H]1CN(C)Cc1ccncc1`, the cytotoxicity call is “inactive”.
For `COc1cccc(S(=O)(=O)Nc2ccc3c(c2)[C@@H]2C[C@@H](CC(=O)N4CCCCC4)O[C@H](CO)[C@@H]2O3)c1`, the cytotoxicity call is “inactive”.
Same read-out and setting: the same measure for `COc1ccccc1C#Cc1cnc2c(c1)C(=O)N([C@@H](C)CO)C[C@H](C)[C@H](CN(C)C(=O)CN(C)C)O2`: “inactive”.

A further experiment deals with HepG2. Kind of experiment: cytotoxicity call (relative viability < 0.9). The settings on record: 10 µM.
Consider `C[C@H]1CN([C@@H](C)CO)C(=O)c2cc(NS(=O)(=O)c3ccccc3)ccc2O[C@H]1CN(C)S(=O)(=O)c1ccc(F)cc1`, for which the cytotoxicity call is “inactive”.
With `C[C@H](CO)N1C[C@H](C)[C@@H](CN(C)S(=O)(=O)c2cn(C)cn2)OCCCC[C@H](C)Oc2ccc(NC(=O)Nc3cccc4ccccc34)cc2C1=O`, the cytotoxicity call was “inactive”.
Same read-out and setting: the same measure for `COc1ccccc1C#Cc1ccc2c(c1)O[C@H](CN(C)Cc1ccncc1)[C@@H](C)CN([C@H](C)CO)S2(=O)=O`: “inactive”; for `COc1cccc(NC(=O)N[C@@H]2CC[C@H](CC(=O)N3CCOCC3)O[C@H]2CO)c1`: “inactive”.
For `O=c1cc(-c2ccccc2)oc2ccc(O)cc12`, the cytotoxicity call is “inactive”.
For the compound `C[C@@H]1CN([C@H](C)CO)C(=O)Cc2cc(NC(=O)Cc3cn(C)c4ccccc34)ccc2O[C@@H]1CN(C)C(=O)Nc1cccc2ccccc12`, the cytotoxicity call was “inactive”.
`COc1cccc(C#Cc2ccc3c(c2)O[C@H](CN(C)S(=O)(=O)c2ccccc2F)[C@@H](C)CN([C@H](C)CO)S3(=O)=O)c1`: the cytotoxicity call is “inactive”.
As for `C[C@@H]1CN([C@H](C)CO)C(=O)Cc2cc(NC(=O)Nc3ccc(C(F)(F)F)cc3)ccc2O[C@H]1CN(C)CC1CCCCC1`, the cytotoxicity call was “active”.
Consider `C[C@@H]1CN([C@@H](C)CO)C(=O)Cc2cc(NC(=O)Nc3ccc(C(F)(F)F)cc3)ccc2O[C@@H]1CN(C)Cc1ccc(Cl)c(Cl)c1`, for which the cytotoxicity call was “active”.
In the case of `COc1cccc(S(=O)(=O)N(C)C[C@@H]2Oc3c(NC(=O)Nc4cccc5ccccc45)cccc3C(=O)N([C@@H](C)CO)C[C@H]2C)c1`, the cytotoxicity call is “active”.
With `CN1C[C@@H](O)COC[C@@H]2O[C@@H](CC(=O)N3CCN(c4ccccc4)CC3)CC[C@H]21`, the cytotoxicity call is “inactive”.
`C[C@H](CO)N1C[C@H](C)[C@H](CN(C)C(=O)Nc2ccc3c(c2)OCO3)Oc2ncc(C#CC3(O)CCCC3)cc2C1=O`: the cytotoxicity call is “inactive”.
On to `C[C@H]1CN([C@@H](C)CO)C(=O)c2cc(NC(=O)Nc3ccccc3)ccc2O[C@H]1CN(C)Cc1ccc(Oc2ccccc2)cc1`, for which the cytotoxicity call was “inactive”.
`C[C@@H]1CN([C@H](C)CO)C(=O)Cc2cc(NS(=O)(=O)c3ccccc3)ccc2O[C@H]1CN(C)S(=O)(=O)c1ccccc1`: the cytotoxicity call was “inactive”.
The same measure, in the same setting: to `C[C@@H]1CN([C@@H](C)CO)C(=O)Cc2cc(NS(=O)(=O)c3cn(C)cn3)ccc2O[C@@H]1CN(C)CC1CCCCC1` belongs “inactive”; to `CC(C)NC(=O)Nc1cccc2c1O[C@H](CN(C)Cc1ccc(Oc3ccccc3)cc1)[C@@H](C)CN([C@@H](C)CO)C2=O`, “active”.
As for `N[C@@H](CSCc1ccccc1Cl)C(=O)O`, the cytotoxicity call was “inactive”.
Same read-out and setting: the same measure for `COc1cccc(NC(=O)N2C[C@@H](O)COC[C@H]3O[C@@H](CC(=O)NCCCN4CCOCC4)CC[C@@H]32)c1`: “inactive”.
As for `O=C1c2ccccc2-c2c(-c3ccccc3)nc3ccccc3c21`, the cytotoxicity call is “inactive”.
In the case of `COc1ccc(S(=O)(=O)Nc2ccc3c(c2)C(=O)N([C@H](C)CO)C[C@H](C)[C@H](CN(C)S(=O)(=O)c2cn(C)cn2)O3)cc1`, the cytotoxicity call was “inactive”.
For `O=C(C[C@H]1C[C@H]2c3cc(NS(=O)(=O)c4ccc(F)cc4)ccc3O[C@H]2[C@H](CO)O1)NC1CCCC1`, the cytotoxicity call was “inactive”.
As for `COc1ccc(NC(=O)N(C)C[C@H]2Oc3c(NC(=O)Nc4ccc(C(F)(F)F)cc4)cccc3C(=O)N([C@@H](C)CO)C[C@@H]2C)cc1`, the cytotoxicity call was “inactive”.
The same measure, in the same setting: the same measure for `C[C@H]1CN([C@@H](C)CO)C(=O)Cc2cc(NC(=O)Nc3ccc(F)cc3)ccc2O[C@H]1CN(C)S(=O)(=O)c1ccc(Oc2ccccc2)cc1`: “active”; for `CC(C)NC(=O)N(C)C[C@@H]1OCCCC[C@@H](C)Oc2ccc(NS(C)(=O)=O)cc2C(=O)N([C@H](C)CO)C[C@H]1C`: “inactive”; for `COc1cccc(CNc2nn[nH]n2)c1OC`: “inactive”.
In the case of `COc1ccc(S(=O)(=O)Nc2ccc3c(c2)CC(=O)N([C@@H](C)CO)C[C@@H](C)[C@H](CN(C)S(=O)(=O)c2cn(C)cn2)O3)cc1`, the cytotoxicity call was “inactive”.
With `COc1ccc(S(=O)(=O)N(C)C[C@H]2Oc3ccc(NC(=O)CCCN(C)C)cc3CC(=O)N([C@@H](C)CO)C[C@@H]2C)cc1`, the cytotoxicity call is “inactive”.
Same read-out and setting: the same measure for `COc1cccc(S(=O)(=O)Nc2ccc3c(c2)[C@@H]2C[C@@H](CC(=O)NC4CCCCC4)O[C@H](CO)[C@@H]2O3)c1`: “inactive”; for `C[C@@H]1CN([C@H](C)CO)C(=O)c2cc(NC(=O)Nc3ccc(C(F)(F)F)cc3)ccc2O[C@@H](C)CCCCO[C@@H]1CN(C)C(=O)C1CCCCC1`: “active”; for `CNC[C@@H]1OCCCC[C@@H](C)Oc2ccc(NC(=O)CCCN(C)C)cc2C(=O)N([C@@H](C)CO)C[C@H]1C`: “inactive”.
For `Cc1noc(C)c1NC(=O)Nc1ccc2c(c1)C(=O)N([C@H](C)CO)C[C@@H](C)[C@H](CN(C)Cc1ccncc1)OCCCC[C@@H](C)O2`, the cytotoxicity call was “inactive”.
For the compound `C[C@@H]1CN([C@@H](C)CO)C(=O)c2cc(NS(C)(=O)=O)ccc2O[C@H]1CN(C)S(=O)(=O)c1cccs1`, the cytotoxicity call was “inactive”.
As for `C[C@@H]1CN([C@@H](C)CO)C(=O)c2cccc(NC(=O)c3cnccn3)c2O[C@H]1CN(C)S(=O)(=O)c1ccc(F)cc1`, the cytotoxicity call is “inactive”.
As for `CO[C@H]1CN(C)C(=O)c2cc(NC(=O)Nc3cccc(Cl)c3)ccc2OC[C@H](C)N(C(=O)Nc2c(C)noc2C)C[C@H]1C`, the cytotoxicity call is “inactive”.
For `C[C@H]1CN([C@@H](C)CO)C(=O)c2cc(NC(=O)C3CCCCC3)ccc2O[C@@H]1CN(C)C(=O)Nc1ccc(C(F)(F)F)cc1`, the cytotoxicity call is “inactive”.
`C[C@@H]1CN([C@@H](C)CO)C(=O)Cc2cc(NC(=O)Nc3ccc4c(c3)OCO4)ccc2O[C@@H]1CN(C)C(=O)Nc1ccc(C(F)(F)F)cc1`: the cytotoxicity call was “inactive”.
On to `C[C@H](CO)N1C[C@H](C)[C@@H](CN(C)C(=O)NC2CCCCC2)Oc2ccc(NC(=O)Nc3ccc(C(F)(F)F)cc3)cc2C1=O`, for which the cytotoxicity call was “inactive”.
On the same count and under the same terms, to `C[C@H]1CN([C@@H](C)CO)S(=O)(=O)c2ccc(C#CC(C)(C)O)cc2O[C@@H]1CN(C)Cc1ccncc1` belongs “inactive”; to `COc1cccc(S(=O)(=O)Nc2ccc3c(c2)[C@@H]2C[C@@H](CC(=O)N4CCCCC4)O[C@H](CO)[C@@H]2O3)c1`, “inactive”; to `COc1ccccc1C#Cc1cnc2c(c1)C(=O)N([C@@H](C)CO)C[C@H](C)[C@H](CN(C)C(=O)CN(C)C)O2`, “inactive”.
